Source: paper PMC6294520
Substitutions are numbered along the chain they refer to. Names and notes keep the numbering of the source. Results are given in words; binding and its absence hold for the method and conditions named. For some of these results: Binding seen in cells or lysates may run through a third protein. Some entries that bind do so weakly or less than the wild type. For some of these results: Tags and fused reporters may be left off the sequences shown.

Chains of the proteins cited; added tags and fusions are not shown.
UniProt A5YKK6: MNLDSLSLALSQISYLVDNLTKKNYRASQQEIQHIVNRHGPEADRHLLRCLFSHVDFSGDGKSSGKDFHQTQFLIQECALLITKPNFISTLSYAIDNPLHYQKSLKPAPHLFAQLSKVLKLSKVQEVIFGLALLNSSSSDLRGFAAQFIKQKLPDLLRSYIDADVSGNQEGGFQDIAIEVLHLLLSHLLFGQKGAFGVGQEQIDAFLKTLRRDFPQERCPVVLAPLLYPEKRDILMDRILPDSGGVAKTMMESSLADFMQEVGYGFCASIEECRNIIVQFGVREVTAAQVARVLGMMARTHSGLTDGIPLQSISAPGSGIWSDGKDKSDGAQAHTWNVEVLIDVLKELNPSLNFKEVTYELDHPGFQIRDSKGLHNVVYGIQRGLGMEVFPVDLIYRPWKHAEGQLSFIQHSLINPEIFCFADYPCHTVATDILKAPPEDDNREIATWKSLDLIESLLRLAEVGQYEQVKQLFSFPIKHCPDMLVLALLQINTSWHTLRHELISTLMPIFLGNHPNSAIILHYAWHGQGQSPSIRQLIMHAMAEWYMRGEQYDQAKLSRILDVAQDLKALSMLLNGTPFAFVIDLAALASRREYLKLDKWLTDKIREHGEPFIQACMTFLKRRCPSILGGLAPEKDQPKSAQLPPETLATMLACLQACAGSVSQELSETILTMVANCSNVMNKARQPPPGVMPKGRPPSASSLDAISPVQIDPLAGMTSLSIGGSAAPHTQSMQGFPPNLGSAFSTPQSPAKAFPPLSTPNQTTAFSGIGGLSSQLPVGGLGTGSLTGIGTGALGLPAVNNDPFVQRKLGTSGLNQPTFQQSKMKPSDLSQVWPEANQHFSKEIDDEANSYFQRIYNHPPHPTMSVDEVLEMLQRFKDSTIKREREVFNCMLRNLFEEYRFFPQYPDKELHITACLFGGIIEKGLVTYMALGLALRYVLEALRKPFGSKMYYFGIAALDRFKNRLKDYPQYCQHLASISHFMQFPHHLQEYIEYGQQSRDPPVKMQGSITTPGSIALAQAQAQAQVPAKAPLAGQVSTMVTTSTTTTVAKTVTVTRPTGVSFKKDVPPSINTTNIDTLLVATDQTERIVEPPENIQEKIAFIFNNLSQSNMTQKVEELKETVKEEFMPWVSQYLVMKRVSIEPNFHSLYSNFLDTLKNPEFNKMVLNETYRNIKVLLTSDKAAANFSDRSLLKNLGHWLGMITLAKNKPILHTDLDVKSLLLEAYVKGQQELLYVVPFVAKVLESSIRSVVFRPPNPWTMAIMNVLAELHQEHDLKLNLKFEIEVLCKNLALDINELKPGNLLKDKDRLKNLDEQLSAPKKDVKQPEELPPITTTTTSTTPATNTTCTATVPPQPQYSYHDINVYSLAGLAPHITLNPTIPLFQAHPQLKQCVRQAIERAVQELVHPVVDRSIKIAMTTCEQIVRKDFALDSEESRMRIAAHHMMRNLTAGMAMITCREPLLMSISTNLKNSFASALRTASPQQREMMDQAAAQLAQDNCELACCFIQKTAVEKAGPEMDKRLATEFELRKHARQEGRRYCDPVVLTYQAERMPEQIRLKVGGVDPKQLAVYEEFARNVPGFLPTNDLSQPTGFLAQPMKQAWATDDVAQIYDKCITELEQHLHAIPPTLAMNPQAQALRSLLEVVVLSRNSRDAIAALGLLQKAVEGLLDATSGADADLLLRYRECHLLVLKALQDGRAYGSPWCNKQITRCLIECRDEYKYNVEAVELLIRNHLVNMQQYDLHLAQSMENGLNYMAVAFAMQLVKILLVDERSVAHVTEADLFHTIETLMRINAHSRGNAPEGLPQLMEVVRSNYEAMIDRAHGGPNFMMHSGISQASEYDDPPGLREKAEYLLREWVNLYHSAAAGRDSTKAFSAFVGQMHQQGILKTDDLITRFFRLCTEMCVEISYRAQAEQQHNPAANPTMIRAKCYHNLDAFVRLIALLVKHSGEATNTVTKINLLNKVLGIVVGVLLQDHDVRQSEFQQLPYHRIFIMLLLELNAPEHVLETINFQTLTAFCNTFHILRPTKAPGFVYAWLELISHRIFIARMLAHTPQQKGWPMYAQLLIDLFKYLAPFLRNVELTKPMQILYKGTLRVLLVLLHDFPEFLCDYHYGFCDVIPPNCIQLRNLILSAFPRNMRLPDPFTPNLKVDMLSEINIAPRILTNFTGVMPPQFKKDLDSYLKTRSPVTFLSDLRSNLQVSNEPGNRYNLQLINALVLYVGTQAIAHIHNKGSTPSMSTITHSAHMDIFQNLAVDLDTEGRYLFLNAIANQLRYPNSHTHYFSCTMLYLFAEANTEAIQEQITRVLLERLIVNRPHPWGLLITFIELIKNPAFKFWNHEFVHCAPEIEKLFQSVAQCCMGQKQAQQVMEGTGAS

T1: FLAG-tagged MARF1 fragment containing the isolated NYN domain (human) (UniProt Q9Y4F3)
T1 sequence: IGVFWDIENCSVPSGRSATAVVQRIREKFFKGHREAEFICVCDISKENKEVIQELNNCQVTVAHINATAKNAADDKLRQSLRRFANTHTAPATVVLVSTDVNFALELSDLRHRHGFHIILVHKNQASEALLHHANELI

T2: FLAG-tagged MARF1 C-terminal fragment containing only the C-terminal 172 residues (human) (UniProt Q9Y4F3)
T2 sequence: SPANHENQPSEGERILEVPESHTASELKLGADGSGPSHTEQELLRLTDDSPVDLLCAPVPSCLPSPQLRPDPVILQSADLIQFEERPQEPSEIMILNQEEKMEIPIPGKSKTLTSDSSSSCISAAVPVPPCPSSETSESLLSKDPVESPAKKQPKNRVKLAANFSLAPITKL

B1: PATL1 (protein, UniProt Q86TB9 1-770)
chain: MFRYESLEDCPLDEDEDAFQGLGEEDEEIDQFNDDTFGSGAVDDDWQEAHERLAELEEKLPVAVNEQTGNGERDEMDLLGDHEENLAERLSKMVIENELEDPAIMRAVQTRPVLQPQPGSLNSSIWDGSEVLRRIRGPLLAQEMPTVSVLEYALPQRPPQGPEDDRDLSERALPRRSTSPIIGSPPVRAVPIGTPPKQMAVPSFTQQILCPKPVHVRPPMPPRYPAPYGERMSPNQLCSVPNSSLLGHPFPPSVPPVLSPLQRAQLLGGAQLQPGRMSPSQFARVPGFVGSPLAAMNPKLLQGRVGQMLPPAPGFRAFFSAPPSATPPPQQHPPGPGPHLQNLRSQAPMFRPDTTHLHPQHRRLLHQRQQQNRSQHRNLNGAGDRGSHRSSHQDHLRKDPYANLMLQREKDWVSKIQMMQLQSTDPYLDDFYYQNYFEKLEKLSAAEEIQGDGPKKERTKLITPQVAKLEHAYKPVQFEGSLGKLTVSSVNNPRKMIDAVVTSRSEDDETKEKQVRDKRRKTLVIIEKTYSLLLDVEDYERRYLLSLEEERPALMDDRKHKICSMYDNLRGKLPGQERPSDDHFVQIMCIRKGKRMVARILPFLSTEQAADILMTTARNLPFLIKKDAQDEVLPCLLSPFSLLLYHLPSVSITSLLRQLMNLPQSAATPALSNPHLTAVLQNKFGLSLLLILLSRGEDLQSSDPATESTQNNQWTEVMFMATRELLRIPQAALAKPISIPTNLVSLFSRYVDRQKLNLLETKLQLVQGIR
B2: EDC4 (enhancer of mRNA decapping) (protein, UniProt Q6P2E9 1-1401)
chain: MASCASIDIEDATQHLRDILKLDRPAGGPSAESPRPSSAYNGDLNGLLVPDPLCSGDSTSANKTGLRTMPPINLQEKQVICLSGDDSSTCIGILAKEVEIVASSDSSISSKARGSNKVKIQPVAKYDWEQKYYYGNLIAVSNSFLAYAIRAANNGSAMVRVISVSTSERTLLKGFTGSVADLAFAHLNSPQLACLDEAGNLFVWRLALVNGKIQEEILVHIRQPEGTPLNHFRRIIWCPFIPEESEDCCEESSPTVALLHEDRAEVWDLDMLRSSHSTWPVDVSQIKQGFIVVKGHSTCLSEGALSPDGTVLATASHDGYVKFWQIYIEGQDEPRCLHEWKPHDGRPLSCLLFCDNHKKQDPDVPFWRFLITGADQNRELKMWCTVSWTCLQTIRFSPDIFSSVSVPPSLKVCLDLSAEYLILSDVQRKVLYVMELLQNQEEGHACFSSISEFLLTHPVLSFGIQVVSRCRLRHTEVLPAEEENDSLGADGTHGAGAMESAAGVLIKLFCVHTKALQDVQIRFQPQLNPDVVAPLPTHTAHEDFTFGESRPELGSEGLGSAAHGSQPDLRRIVELPAPADFLSLSSETKPKLMTPDAFMTPSASLQQITASPSSSSSGSSSSSSSSSSSLTAVSAMSSTSAVDPSLTRPPEELTLSPKLQLDGSLTMSSSGSLQASPRGLLPGLLPAPADKLTPKGPGQVPTATSALSLELQEVEPLGLPQASPSRTRSPDVISSASTALSQDIPEIASEALSRGFGSSAPEGLEPDSMASAASALHLLSPRPRPGPELGPQLGLDGGPGDGDRHNTPSLLEAALTQEASTPDSQVWPTAPDITRETCSTLAESPRNGLQEKHKSLAFHRPPYHLLQQRDSQDASAEQSDHDDEVASLASASGGFGTKVPAPRLPAKDWKTKGSPRTSPKLKRKSKKDDGDAAMGSRLTEHQVAEPPEDWPALIWQQQRELAELRHSQEELLQRLCTQLEGLQSTVTGHVERALETRHEQEQRRLERALAEGQQRGGQLQEQLTQQLSQALSSAVAGRLERSIRDEIKKTVPPCVSRSLEPMAGQLSNSVATKLTAVEGSMKENISKLLKSKNLTDAIARAAADTLQGPMQAAYREAFQSVVLPAFEKSCQAMFQQINDSFRLGTQEYLQQLESHMKSRKAREQEAREPVLAQLRGLVSTLQSATEQMAATVAGSVRAEVQHQLHVAVGSLQESILAQVQRIVKGEVSVALKEQQAAVTSSIMQAMRSAAGTPVPSAHLDCQAQQAHILQLLQQGHLNQAFQQALTAADLNLVLYVCETVDPAQVFGQPPCPLSQPVLLSLIQQLASDLGTRTDLKLSYLEEAVMHLDHSDPITRDHMGSVMAQVRQKLFQFLQAEPHNSLGKAARRLSLMLHGLVTPSLP
B3: human MARF1 NYN domain, residues 352-500, wild type (domain or fragment, UniProt Q9Y4F3 352-500)
chain: PIGVFWDIENCSVPSGRSATAVVQRIREKFFKGHREAEFICVCDISKENKEVIQELNNCQVTVAHINATAKNAADDKLRQSLRRFANTHTAPATVVLVSTDVNFALELSDLRHRHGFHIILVHKNQASEALLHHANELIRFEEFISDLP
B4: human MARF1 NYN domain, residues 352-500, I391M/L457M (domain or fragment, UniProt Q9Y4F3 352-500)
chain: B3 chain with I40M, L106M

How the values were obtained:
[1] = biological target: Full-length FLAG-BirA*-MARF1 (human) (UniProt Q9Y4F3); test: co-IP; FLAG-BirA*-MARF1 precipitated with anti-FLAG antibody from benzonase-treated HEK293 cell extracts under mild lysis and wash conditions; western blot of endogenous proteins
[2] = biological target: T1, FLAG-tagged MARF1 fragment containing the isolated NYN domain (human); test: co-IP; FLAG-tagged MARF1 fragments precipitated with anti-FLAG antibody from benzonase-treated HeLa cell extracts; western blot of endogenous proteins
[3] = biological target: T2, FLAG-tagged MARF1 C-terminal fragment containing only the C-terminal 172 residues (human); test: as above
[4] = biological target: human MARF1 NYN domain, residues 352-500, wild type (human) (UniProt Q9Y4F3); test: SEC; size exclusion chromatography of the purified NYN domain in solution; both purified
[5] = biological target: human MARF1 NYN domain, residues 352-500, I391M/L457M (human) (UniProt Q9Y4F3); test: as above

Row | Molecule | binding [1] | binding [2] | further results
1 | CNOT1, the central subunit of the CCR4-NOT deadenylase complex (from UniProt A5YKK6 1-2376) | no binding | – | –
2 | DCP2 decapping enzyme (from UniProt Q8IU60 1-420) | binds | no binding | –
3 | B1 | binds | no binding | –
4 | B2 | binds | no binding | binding [3]: binds
5 | B3 | – | – | binding [4]: no binding
6 | B4 | – | – | binding [5]: no binding
